In publication PMC6451091:
The other results are listed elsewhere or left out. For part of these data: At the low end of the ranking, values are background and their order means little. For part of these data: Measured with an extract: partners may take part in the binding.

Experiments:
Conditions in all cases: 20 mM HEPES pH 7.9, 100 mM NaCl, 1 mM DTT, 0.2 mg/mL BSA, 0.02% Triton X-100, 2% milk, 0.4 mg/mL salmon testes DNA; 1 h; temperature not stated; high values mean tight binding; double strand, one strand shown; sequences stand for … in GCCTAGCAC…GTGCTAGGTCTTGATTCGCTTGACGCTGCTG
PU.1 (IVT) = PU.1 (IVT) (UniProt P17947); assay: protein-binding microarray (PBM)
[1] = molecular target: PU.1 (endogenous, THP-1 nuclear extract) (UniProt P17947); assay: nuclear extract protein-binding microarray (nextPBM)
[2] = molecular target: T1, FLI1 (endogenous, THP-1 nuclear extract) (UniProt Q01543); assay: as above
T1 sequence: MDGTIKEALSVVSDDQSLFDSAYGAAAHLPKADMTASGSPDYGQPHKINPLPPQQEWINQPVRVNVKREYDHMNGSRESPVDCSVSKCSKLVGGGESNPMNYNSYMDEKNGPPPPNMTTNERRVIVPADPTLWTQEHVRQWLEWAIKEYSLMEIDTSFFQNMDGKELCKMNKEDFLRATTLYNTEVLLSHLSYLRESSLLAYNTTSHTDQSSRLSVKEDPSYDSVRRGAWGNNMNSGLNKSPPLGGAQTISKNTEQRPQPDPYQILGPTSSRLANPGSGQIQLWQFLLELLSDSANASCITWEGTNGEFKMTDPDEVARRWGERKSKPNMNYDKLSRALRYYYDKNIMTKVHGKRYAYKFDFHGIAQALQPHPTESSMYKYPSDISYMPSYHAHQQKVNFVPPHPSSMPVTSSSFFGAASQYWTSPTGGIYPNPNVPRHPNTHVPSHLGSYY

Sequence	binding signal (PU.1 (IVT)) [z-score]	binding signal [1] [z-score]	binding signal [2] [z-score]
AAAATGAGGAAGTGCATTGA	8.07	7.7	3.38
CAAAAGGGGAAGTGGATGCT	7.79	7.18	3.6
GAGAACAGGAAGTCCCATAG	4.24	5.15	4.18
CAAATGCGGAACTGATGCGG	5.74	6.2	2.47
CAGAAGAGGAAGTCAGGCAG	5.16	6.24	2.89
TTGAAAAGGAAGTGGGCGAG	2.66	2.46	2.47
TGAAAGAGGAAATGCAACCA	4.2	4.23	2.74
GAAAAGAGGAAGTTGCTTAC	9.03	7.49	4.2
TGAAAAAGGAAGTGCAACCA	4.61	4.62	2.5
AAAAAAAGGAAGTGGGCATG	6.79	6.64	3.19
GAAAACAGGAAGTCAACGGC	7.37	7.07	4.77
AGAGAGGGGAAGTGACTTGC	4.95	4.75	2.64
CCAAAGGGGAAGTGGCTTGT	5.85	6.46	2.91
ACAAAAAGGAACTGTGACCC	2.34	1.82	0.514
GGAAAGAGGAAGTGCTAGAG	7.79	7.37	4.44
TGAGAGAGGAAGTGCAACCA	4.26	4.51	3.08
AAAATGAGGAAGTGCCGAGA	7.79	7.33	3.74
GAGAAGAGGAACTAGGTCAA	4.64	5.1	1.27
AGTATGGGGAAGTGTTTAGG	4.86	4.91	1.8
AAAATGAGGAAGTAATTCCT	8.66	7.46	4.12

Sequence	binding signal (PU.1 (IVT)) [z-score]	binding signal [1] [z-score]	binding signal [2] [z-score]
TGAAAGAGGAAGTGCAACCT	7.49	7.43	4.07
CAAATTAGGAAGTGCAGAAG	4.02	3.91	2.04
CAAATGGGGAAGTGTCCCTT	6.6	7.1	2.65
ACAAAAAGTAACTGTGCCCC	-0.372	-0.05	-0.053
CAGAAGAGGAAGTGCTAACT	6.68	6.78	3.68
GAGGTGGGGAAGTGGGCGAG	2.83	2.5	1.12
AGCAGGAGGAAGTGTGGGGG	3.47	3.72	2.27
CTAAAGGGGAAGTGCTAAAC	6.12	6.57	2.81
AAAATCAGGAAGTCCCTTAC	6.01	6.54	2.98
ACAAAAAGGAACTGTGCCCG	2.22	1.83	0.755
GGGAAGAGGAAGTATGCAAT	5.97	6.56	2.96
CAGGGCAGGAAGTACTGTGC	2.18	2.05	3.44
GTGGGAGGGAAGTGAGGCTC	2.25	2.32	1.31
TGGGAGAGGAAGTGATGAGC	4.01	4.16	2.72
GAAATGAGGAACTGGCTGGA	6.23	6.56	1.98
CTGGTGAGGAAGTGTGAGAC	2.86	2.97	1.99
GAAAAGAGGAAGTCCGGTGA	8.09	7.21	4.04
AAGAAAAGGAACTGGCTAGA	1.87	2	0.918
CAAATGAGAAACTGATGCGG	0.374	0.135	-0.412
AGAAAAAGGAAGTGAGCAGC	5.58	6.03	2.81

Sequence	binding signal (PU.1 (IVT)) [z-score]	binding signal [1] [z-score]	binding signal [2] [z-score]
AGGAAGGGGAAGTATTTGAG	5.89	5.54	3.13
GGGGAGAGGAAGTGGCCTTT	4.25	4.45	3.13
AAGGTGAGGAACTACTGTGT	2.24	2.08	0.399
AAGAAAGAGAACTACTGTGA	0.933	1.08	-0.212
TGGAAGAGGAAGTGAGAGAG	5.56	6.37	3.25
CAAAAAGGGAGGTGGATGCT	0.0907	-0.129	0.214
GGTGGGAGGAAGTGATCGGT	3.72	3.62	2.79
AGGAAGAGGAAGTGGGGGCT	6.08	6.31	3.64
TGAAAGGGGAAGTGACTTCC	7.7	7.17	4.5
GCAGAAAGGAAGTGGGTTAT	2.38	2.15	3
AGAAACGGGAAGTGGAATTG	7.29	7.13	3.49
CAAGAGAGGAAGTGACATTT	5.45	5.21	3.51
GAAATCAGGAAGTGAGAGTC	5.88	6.71	3.46
AGAGTGAGGAAGTGAACTTA	4.08	3.85	1.96
AAGGAGAGGAAGTGGGTGTC	3.99	4.02	3.17
AGATTGGGGAAGTGACTCTA	5.5	6.43	2.67
TGAAAGAGGAAGTGCATCCA	7.57	7.12	3.68
GAAAAGAGGAAGCCCTAACA	5.18	6.12	2.01
AGGAAGGGGAAGTGGCTACC	5.74	6.39	3.17
AGAAAGAGGAAGTGACTTGC	8.54	7.37	3.97
